# Measurements from the supplement of paper PMC8728848.
# The other results are listed elsewhere or left out.
# B1: AAA (Anguilla anguilla), Q7SIC1 (protein)
# chain: VIPEGYTQENVAVRGKATQSAQLRGEHAANSEASNAIDGNRDSNFYHGSCTHSSGQANPWWRVDLLQVYTITSVTITNRGDCCGERISGAEINIGQHLASNGVNNPECSVIGSMATGETKTFHCPAPMIGRYVVTYLPTSESLHLCEVEVNVDKPAAA
# How the values were obtained:
# Assay in all cases: glycan array binding signal (z-score within array); higher = stronger binding
# Settings in all cases: glycan notation: IUPAC condensed, linker removed
# [1] = target: Fuc(a1-3)[Gal(b1-4)]GlcNAc(b1-3)GalNAc
# Procedure, shortened: (§1)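 The binding signal is a Z-score computed within each array. Data were drawn from 3228 arrays in the Consortium for Functional Glycomics database, restricted to those with a known protein sequence. Scores were averaged over arrays of the same protein sequence at different concentrations or buffers, and over linkers, and negative values can be taken as non-binding.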
# [2] = target: Fuc(a1-3)[Gal(b1-4)]GlcNAc(b1-4)Gal(b1-4)[Fuc(a1-3)]GlcNAc
# Procedure, shortened: as §1
# [3] = target: Fuc(a1-3)[Gal(b1-4)]GlcNAc(b1-4)Gal(b1-4)[Fuc(a1-3)]GlcNAc(b1-4)Gal(b1-4)[Fuc(a1-3)]GlcNAc
# Procedure, shortened: as §1
# [4] = target: Fuc(a1-3)[Gal(b1-4)]GlcNAc(b1-6)GalNAc
# Procedure, shortened: as §1
# [5] = target: Fuc(a1-3)[Gal(b1-4)]GlcNAc(b1-6)[Gal(b1-3)GlcNAc(b1-3)]Gal(b1-4)Glc
# Procedure, shortened: as §1
# [6] = target: Fuc(a1-3)[Gal(b1-4)]GlcNAc6S
# Procedure, shortened: as §1
# [7] = target: Fuc(a1-3)[Gal3S(b1-4)]Glc
# Procedure, shortened: as §1
# [8] = target: Fuc(a1-3)[Gal3S(b1-4)]Glc6S
# Procedure, shortened: as §1
# [9] = target: Fuc(a1-3)[Gal3S(b1-4)]GlcNAc
# Procedure, shortened: as §1
# [10] = target: Fuc(a1-3)[Gal3S(b1-4)]GlcNAc6S
# Procedure, shortened: as §1
# [11] = target: Fuc(a1-3)[GalNAc(b1-4)]Gal(b1-4)GlcNAc
# Procedure, shortened: as §1
# [12] = target: Fuc(a1-3)[GalNAc(b1-4)]GlcNAc
# Procedure, shortened: as §1
# [13] = target: Fuc(a1-3)[GalNAc(b1-4)]GlcNAc6S
# Procedure, shortened: as §1
# Fuc(a1-4)GlcNAc = target: Fuc(a1-4)GlcNAc
# Procedure, shortened: as §1
# Fuc(b1-3)GlcNAc = target: Fuc(b1-3)GlcNAc
# Procedure, shortened: as §1
# Gal(a1-2)Gal = target: Gal(a1-2)Gal
# Procedure, shortened: as §1
# Gal(a1-3)Gal = target: Gal(a1-3)Gal
# Procedure, shortened: as §1
# Gal(a1-3)Gal(b1-3)Glc = target: Gal(a1-3)Gal(b1-3)Glc
# Procedure, shortened: as §1
# Gal(a1-3)Gal(b1-3)GlcNAc = target: Gal(a1-3)Gal(b1-3)GlcNAc
# Procedure, shortened: as §1
# [14] = target: Gal(a1-3)Gal(b1-3)GlcNAc(b1-2)Man
# Procedure, shortened: as §1
# [15] = target: Gal(a1-3)Gal(b1-3)GlcNAc(b1-2)Man(a1-3)[Gal(a1-3)Gal(b1-3)GlcNAc(b1-2)Man(a1-6)]Man(b1-4)GlcNAc(b1-4)GlcNAc
# Procedure, shortened: as §1
# [16] = target: Gal(a1-3)Gal(b1-3)GlcNAc(b1-3)GalNAc
# Procedure, shortened: as §1
# [17] = target: Gal(a1-3)Gal(b1-3)GlcNAc(b1-6)GalNAc
# Procedure, shortened: as §1
# [18] = target: Gal(a1-3)Gal(b1-3)[Fuc(a1-4)]GlcNAc(b1-2)Man(a1-3)[Gal(a1-3)Gal(b1-3)[Fuc(a1-4)]GlcNAc(b1-2)Man(a1-6)]Man(b1-4)GlcNAc(b1-4)GlcNAc
# Procedure, shortened: as §1
# Gal(a1-3)Gal(b1-4)Glc = target: Gal(a1-3)Gal(b1-4)Glc
# Procedure, shortened: as §1
# Gal(a1-3)Gal(b1-4)GlcNAc = target: Gal(a1-3)Gal(b1-4)GlcNAc
# Procedure, shortened: as §1
# [19] = target: Gal(a1-3)Gal(b1-4)GlcNAc(b1-2)Man
# Procedure, shortened: as §1
# [20] = target: Gal(a1-3)Gal(b1-4)GlcNAc(b1-2)Man(a1-3)[Gal(a1-3)Gal(b1-4)GlcNAc(b1-2)Man(a1-6)]Man(b1-4)GlcNAc(b1-4)GlcNAc
# Procedure, shortened: as §1
# [21] = target: Gal(a1-3)Gal(b1-4)GlcNAc(b1-3)GalNAc
# Procedure, shortened: as §1
# [22] = target: Gal(a1-3)Gal(b1-4)GlcNAc(b1-6)GalNAc
# Procedure, shortened: as §1
# [23] = target: Gal(a1-3)Gal(b1-4)[Fuc(a1-3)]GalNAc
# Procedure, shortened: as §1
# [24] = target: Gal(a1-3)Gal(b1-4)[Fuc(a1-3)]GlcNAc
# Procedure, shortened: as §1
# [25] = target: Gal(a1-3)Gal(b1-4)[Fuc(a1-3)]GlcNAc(b1-2)Man(a1-3)[Gal(a1-3)Gal(b1-4)[Fuc(a1-3)]GlcNAc(b1-2)Man(a1-6)]Man(b1-4)GlcNAc(b1-4)GlcNAc
# Procedure, shortened: as §1
# Gal(a1-3)GalNAc = target: Gal(a1-3)GalNAc
# Procedure, shortened: as §1
# Gal(a1-3)GlcNAc = target: Gal(a1-3)GlcNAc
# Procedure, shortened: as §1
# [26] = target: Gal(a1-3)[Gal(a1-4)]Gal(b1-4)GlcNAc
# Procedure, shortened: as §1
# [27] = target: Gal(a1-4)Gal(b1-3)GlcNAc(b1-2)Man(a1-3)[Gal(a1-4)Gal(b1-3)GlcNAc(b1-2)Man(a1-6)]Man(b1-4)GlcNAc(b1-4)GlcNAc
# Procedure, shortened: as §1
# Gal(a1-4)Gal(b1-4)Gal = target: Gal(a1-4)Gal(b1-4)Gal
# Procedure, shortened: as §1
# Gal(a1-4)Gal(b1-4)GalNAc = target: Gal(a1-4)Gal(b1-4)GalNAc
# Procedure, shortened: as §1
# Gal(a1-4)Gal(b1-4)Glc = target: Gal(a1-4)Gal(b1-4)Glc
# Procedure, shortened: as §1
# Gal(a1-4)Gal(b1-4)GlcNAc = target: Gal(a1-4)Gal(b1-4)GlcNAc
# Procedure, shortened: as §1
# [28] = target: Gal(a1-4)Gal(b1-4)GlcNAc(b1-2)Man(a1-3)[Gal(a1-4)Gal(b1-4)GlcNAc(b1-2)Man(a1-6)]Man(b1-4)GlcNAc(b1-4)GlcNAc
# Procedure, shortened: as §1
# [29] = target: Gal(a1-4)Gal(b1-4)GlcNAc(b1-3)Gal(b1-4)Glc
# Procedure, shortened: as §1
# Gal(a1-4)GlcNAc = target: Gal(a1-4)GlcNAc
# Procedure, shortened: as §1
# Gal(a1-6)Glc = target: Gal(a1-6)Glc
# Procedure, shortened: as §1
binder,measurement,setting,value
B1,glycan array binding signal (z-score),[1],-0.134
same,glycan array binding signal (z-score),[2],-0.249
same,glycan array binding signal (z-score),[3],-0.187
same,glycan array binding signal (z-score),[4],-0.044
same,glycan array binding signal (z-score),[5],-0.184
same,glycan array binding signal (z-score),[6],0.177
same,glycan array binding signal (z-score),[7],-0.009
same,glycan array binding signal (z-score),[8],1.44
same,glycan array binding signal (z-score),[9],-0.494
same,glycan array binding signal (z-score),[10],0.052
same,glycan array binding signal (z-score),[11],-0.513
same,glycan array binding signal (z-score),[12],0.193
same,glycan array binding signal (z-score),[13],-0.219
same,glycan array binding signal (z-score),Fuc(a1-4)GlcNAc,-0.189
same,glycan array binding signal (z-score),Fuc(b1-3)GlcNAc,-0.149
same,glycan array binding signal (z-score),Gal(a1-2)Gal,-0.201
same,glycan array binding signal (z-score),Gal(a1-3)Gal,-0.093
same,glycan array binding signal (z-score),Gal(a1-3)Gal(b1-3)Glc,0.187
same,glycan array binding signal (z-score),Gal(a1-3)Gal(b1-3)GlcNAc,-0.21
same,glycan array binding signal (z-score),[14],-0.254
same,glycan array binding signal (z-score),[15],0.122
same,glycan array binding signal (z-score),[16],-0.262
same,glycan array binding signal (z-score),[17],-0.214
same,glycan array binding signal (z-score),[18],-0.042
same,glycan array binding signal (z-score),Gal(a1-3)Gal(b1-4)Glc,-0.184
same,glycan array binding signal (z-score),Gal(a1-3)Gal(b1-4)GlcNAc,-0.169
same,glycan array binding signal (z-score),[19],-0.144
same,glycan array binding signal (z-score),[20],-0.099
same,glycan array binding signal (z-score),[21],-0.229
same,glycan array binding signal (z-score),[22],-0.152
same,glycan array binding signal (z-score),[23],-0.484
same,glycan array binding signal (z-score),[24],-0.078
same,glycan array binding signal (z-score),[25],-0.535
same,glycan array binding signal (z-score),Gal(a1-3)GalNAc,-0.046
same,glycan array binding signal (z-score),Gal(a1-3)GlcNAc,-0.416
same,glycan array binding signal (z-score),[26],-0.047
same,glycan array binding signal (z-score),[27],-0.227
same,glycan array binding signal (z-score),Gal(a1-4)Gal(b1-4)Gal,-0.282
same,glycan array binding signal (z-score),Gal(a1-4)Gal(b1-4)GalNAc,-0.239
same,glycan array binding signal (z-score),Gal(a1-4)Gal(b1-4)Glc,-0.079
same,glycan array binding signal (z-score),Gal(a1-4)Gal(b1-4)GlcNAc,-0.15
same,glycan array binding signal (z-score),[28],-0.144
same,glycan array binding signal (z-score),[29],-0.163
same,glycan array binding signal (z-score),Gal(a1-4)GlcNAc,0.094
same,glycan array binding signal (z-score),Gal(a1-6)Glc,-0.097
